# The full ranking holds about 4,500 sequences; the median of “median log2 fold change of GCK-ALFA target abundance (FLAG IP / Myc IP barcode read proportion)” is about 0.078, and the lowest 2% start at about -0.6. The list shows a part of the results.
# B1: GBRAP_160_4637 (protein)
# chain: SPAAADLKALIDEYTAFALEEVDAGDIEGALATLRMMVGDLVLAAEESPDFSEEDVDALDALGRAHVERFEANRDASPEELKALIEEGAAELKALVEEFA
# B2: GBRAP_184_5137 (protein)
# chain: MLLRRAIEAETPEEAIAGAREALEEARAAGAALLLSIELEGLSPEEVAEVARAVRALAEELGLEDVTVILEVEADEEEADIVIKAADEAGVRVVVALLEE
# B3: GBRAP_125_3001 (protein)
# chain: SKEELAADMREIALAVGFPESLAELLAQEVLAGSVKGALAAFALALGDEELAELIDQLTEEEAAAVVRELAAYAREKGPISEEEAAAKGRELAEAALAKR
# B4: GBRAP_11_2665 (protein)
# chain: KKEVYEKAAKLARELAELVKKLIEEGIDNEKLREEAEKALKELEELAKKYLDEADKKDVEVLKEIWEEALKNKENRLEYWEQLLAAARVLEGNFLLKADE
# B5: GBRAP_11_2727 (protein)
# chain: KKEELKKLAEEAEKLAEEIEKLIKEGPTLEELKKLLERARELARRAKEIGADESIVEDLEIAAEELEEAIKNPENTLEHLKNALAAARVAAGNLLLELEE
# B6: GBRAP_125_3011 (protein)
# chain: ALAEAVAALEALAARLGLSADEVAELGEQARAHGVKQALIALFLAEGWEENAELAAKLTEAEAAAALARLVARLAANPDLTPEEVKALAREILEEVVAAS
# B7: GBRAP_128_3465 (protein)
# chain: STEEAVAYTRETLEKIKKADLETARKLFEELAERLATLSLEEVEAVVEEILKHLPELTAEKLEILAEVFSKALPKFTPEKRALVAEVISAALLQAEELEE
# B8: GBRAP_11_2748 (protein)
# chain: KKEKLKEIAKAAEELAALLDKLIAEGVDNAELQAAAEKALKELAELVEKYGDESLKKLVAIIQEEFAQAKADPATAEAHWRNALAAARVLAGQVLLEIEE
# B9: GBRAP_125_3090 (protein)
# chain: EEEQLAEDLRLLALALGFSEEDAEEAARIARASSVKGTLYAIFAAEGEEELAELVEKLTEEEAAEVLKRLAAYLKANPDLSKEEVVEKAKELVKEALAAR
# B10: GBRAP_184_5024 (protein)
# chain: KVIEEEIEAENLEELKEKLAALREKVKGSGATLIVSVDLKNPTEEMVKTLITGLGAMKKAGDVSDVTIGFNNELSEELIDVALKTGDEEGVKVVLAISEE
# B11: GBRAP_128_3517 (protein)
# chain: SMAAAVARVDELMARIREASPEEAARLTREIAALLAAADPETREAMVARFEELLPELSREHLLTVADTLRELRPGADPYTANLLAGVEVAALNEAEELEE
# B12: GBRAP_11_2905 (protein)
# chain: KKEELKKAAELAREAAKLLKELQKKGAKDKELWKKAKEALKKLEELVKKYLDESDVELAKYALELLEKAQKDPEKAQQYLDEALATTRVLEGQILLEIEE
# B13: GBRAP_160_4824 (protein)
# chain: SERVERMEKLIDETAAETIELMAGETAEERAAIAAVEGGQLILELSEDPEFTDELEDTVAAIVDALVAEIRANPDLTDEELRALIERAREAIKEAIRAAF
# B14: GBRAP_52_5864 (protein)
# chain: MEEEIRAKLEEMLALVKAGKLEEARALARELVASLTEEEVEVLTKVAAELALAAAKADLDAMWKMTELIAEALEEAGFPEELVTLFEDEVGAAIAKVEAA
# B15: GBRAP_39_5656 (protein)
# chain: EEEEEDELEFSYLIALAVKRQVEEGISDEELIKRGLEKLRELAEEHPEIKELVEELIELAEKGDLETKLAAAGVALLAEEGTPLEEIAEKIKSLIRYLKS
# B16: GBRAP_64_6493 (protein)
# chain: MEELKKELEEEIEEAIEHLKKAAELSPEKKEEYEELIKKLKEAKELSIEERADVLAEVADRLNELLKEEKDNPETADELGEALDHVSEALYLAFEIEEEE
# B17: GBRAP_160_4667 (protein)
# chain: EAELAALMASLEEIANEAIEMMEGESHENRVAIARVMGGEIILELEESPLATDEVVDYADELMDELIATIRANPDLTMEEVRALFDEMLAAIRAELEKTL
# B18: GBRAP_160_4074 (protein)
# chain: SEETEELIEEIEEIAEEAKEFLKESDEENRKAIVRMMAGDILMEVFEAPFISDEDEEEIDEILEEYAEEFEENEDWSMEEKEALIEEMAEKVKEKIKEAA
# B19: GBRAP_9_7184 (protein)
# chain: TAAAKQAILDNVKEEAELAIEVTPEDKKEEIEKALKKLLEELEALVADPSATLEEILEALEKGAKEIIEIAKETLDEETAKQVEAILNTAILYAEEIVEE
# B20: GBRAP_52_5938 (protein)
# chain: MEARLQALLDEMIALVKAGDLEGARALAREIVRTLSDEELEAFIDLLAKRAETAAPEDIDYILELAEIVAEELEKEGKEEVLADDLLARVSAAAYKNLQK
# B21: GBRAP_74_6554 (protein)
# chain: MEELLRRMEELREAKDGRGLIDLAEENVDKVTPEEAARALMIVATFVVEHGEELSDEELERAMDVIVALELKIPNELITDELADAIARAVALAVEREKEL
# B22: GBRAP_52_6176 (protein)
# chain: MRERMRALVEEIVALAKAGDEEGARAKIRELAETLNDEELRIFAEEFARLVRESPVEDLDLLADLLDLIEDIFEEEGVDPRIISYIYGEFATAAYERELA
# B23: GBRAP_160_4264 (protein)
# chain: SPEVEKLIKDAEKSRDEILALIDEITPEEARTMAVVEAGSILMEAIELGAVTDEEEDEAMEIIDELEEELEANKDAPPEVHKAIITEHYDKLIELLKKAK
# B24: GBRAP_78_6737 (protein)
# chain: EVEELLDEALKKLNEAARLAQKFPLEEQTEILDLLIDAATLIWEAEEKGFDLKLLEEALKKLEEALKLVKKLKTPEAEKLAKELEEAIKLVKKAIKLVKK
# B25: GBRAP_160_4799 (protein)
# chain: SERVQRVADLFREAAERALEMAEGETHEERVNIFDVELGSAIMEAIEEGLLNDEEEDVALEVRDELIAELRANPDLTPEEIAALAARAVERLRERLEKLA
# B26: GBRAP_52_5879 (protein)
# chain: ELEKAIELLKKAIEAMKKGDEEKAEKILKEIVEKFSEEVIVKAVEKLAEEIKGKSLEEAEAFFKTAELLAEILLEKGGSEEVASLIEALAGAALYEVEQK
# B27: GBRAP_52_6218 (protein)
# chain: AAARAKAAAEAIVATAKTEGVEAATALLVQLAKELSPEEFRAVLEALVELAKKESAELAEALLDALLAAEDALIAAGVPEADVSDAIAALATVAVEKRAA
# B28: GBRAP_160_4239 (protein)
# chain: SPELEELRREIEEEVELLVEALLEVPPSQWEAIARAYAGNIVQLVIENPNATDEMEEAVAKEADEMVARLVAARDASPEEIRALGREGAERIVQTVEELS
# B29: GBRAP_150_3928 (protein)
# chain: SLETLETLVDTLVDYLEAIAEGHLELVPHALKLAKDALEEAEELPEEYKKPVKELLKKIIEKLEKILAGAPEEERKKLIKEALELAKELKKLVEELKKKE
# Target: GABARAP, O95166
# Assay: median log2 fold change of GCK-ALFA target abundance (FLAG IP / Myc IP barcode read proportion) (log2 ratio); each designed protein is fused to an ALFA-tag nanobody in HEK293 cells to bring the named protein to FLAG-tagged glucokinase (GCK); Myc marks an untargeted standard; higher = target protein stabilised (more abundant)
# Conditions: target protein: 3xFLAG-MCP-GCK-ALFA reporter; HEK293 landing pad (RPLP)
# Method in brief: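 Sequencing of reverse-transcribed, amplified circular RNA barcodes from anti-FLAG and anti-Myc immunoprecipitates provided the readout for an ALFA-nanobody-fused binder library recombined into HEK293 landing-pad cells. Those cells were induced with 2 μg mL^−1 doxycycline, transfected with a plasmid expressing a FLAG-tagged target and a Myc-tagged standard, and lysed after 48 h. Target abundance is the per-binder median log2 ratio of FLAG to Myc barcode read proportions. Only barcodes at a proportion of ≥10^−7 in both replicates and binders with ≥3 barcodes per replicate were kept, with a 10^−6 pseudocount added before the two replicates were pooled.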
# GABARAP, O95166, sequence (O95166 whole entry, the tested form may be a part): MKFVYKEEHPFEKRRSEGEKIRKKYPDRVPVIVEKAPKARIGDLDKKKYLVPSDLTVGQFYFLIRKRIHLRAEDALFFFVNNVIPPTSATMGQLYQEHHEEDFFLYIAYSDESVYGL
row,Binder,median log2 fold change
1,B1,-0.0635
2,B2,0.0237
3,B3,0.0611
4,B4,0.223
5,B5,0.292
6,B6,0.201
7,B7,0.246
8,B8,0.194
9,B9,0.188
10,B10,-0.095
11,B11,0.198
12,B12,0.266
13,B13,0.261
14,B14,0.192
15,B15,0.0702
16,B16,-0.258
17,B17,-0.576
18,B18,-0.279
19,B19,0.252
20,B20,0.0871
21,B21,0.0897
22,B22,-0.213
23,B23,-0.119
24,B24,0.171
25,B25,0.00686
26,B26,0.0689
27,B27,0.152
28,B28,0.18
29,B29,0.306

# Source: the supplement of paper PMC12632987
